# This is one part of the list. At the low end of the ranking, values are background and their order means little.
# Target: T1, GST-Rok (full length) (UniProt O34857)
# T1 sequence: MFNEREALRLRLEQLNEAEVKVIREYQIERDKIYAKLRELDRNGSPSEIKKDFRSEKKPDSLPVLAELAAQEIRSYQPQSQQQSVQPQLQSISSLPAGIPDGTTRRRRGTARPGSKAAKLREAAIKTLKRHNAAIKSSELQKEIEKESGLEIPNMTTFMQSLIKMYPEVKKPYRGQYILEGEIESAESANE
# Experiment: protein binding microarray;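 note: rank score from −0.5 (least bound) to 0.5 (best bound)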
# Settings: Rok is a gene silencer of Bacillus subtilis; high values mean tight binding; most listed sequences are background and not binding sites; double strand, one strand shown
row,Sequence,binding signal
1,CCGACGTC,-0.176 E-score
2,ATGAGTAA,0.16 E-score
3,ATTTTTAG,0.248 E-score
4,AGAGCGAA,-0.177 E-score
5,CCCATATC,-0.0938 E-score
6,CGCGTAGC,-0.0598 E-score
7,ATATTAAA,0.377 E-score
8,CAATGGCA,-0.0269 E-score
9,ATGACAGA,-0.183 E-score
10,AGTAACCC,-0.217 E-score
11,CCTTGTCA,-0.157 E-score
12,AGTTAAAT,0.317 E-score
13,CCCCCACC,-0.461 E-score
14,ATTTGCGG,0.0715 E-score
15,GACTGACA,-0.127 E-score
16,CCTTGGCC,-0.283 E-score
17,ACAATTAG,0.193 E-score
18,TAAGGGTA,0.0981 E-score
19,GAGACGTA,-0.2 E-score
20,CCGAAAGG,-0.324 E-score
21,GTGTCGTA,0.0847 E-score
22,TATGGTAA,0.23 E-score
23,ATCGAACC,0.0368 E-score
24,CTAATTGC,0.107 E-score
25,AGACGCTG,-0.151 E-score

row,Sequence,binding signal
1,CTAAGAGC,-0.28 E-score
2,CGCGGCCC,-0.434 E-score
3,AACGCAAG,0.0979 E-score
4,ATTCACAG,0.0727 E-score
5,GTCCCGCA,-0.196 E-score
6,AGACTGAA,0.0238 E-score
7,CATGTGGC,-0.127 E-score
8,GGAGGGCC,-0.442 E-score
9,CAATTGCA,-0.0876 E-score
10,AGTTTTCG,0.0505 E-score
11,CCGCCGCC,-0.294 E-score
12,CGGTATCA,0.193 E-score
13,AGTGGTGC,-0.0666 E-score
14,GATTCGAC,-0.0211 E-score
15,GTTCCCTA,-0.17 E-score
16,ACAATGTG,0.156 E-score
17,ACGCACGT,-0.141 E-score
18,AACGGCGC,-0.0478 E-score
19,TAGCGGCA,0.172 E-score
20,AAGATGAT,-0.00922 E-score
21,ACTTCTAC,0.286 E-score
22,CAAATGGC,0.0767 E-score
23,AAGTCTCG,-0.172 E-score
24,CACAATCG,-0.182 E-score
25,CACGAAGG,-0.164 E-score

row,Sequence,binding signal
1,CCTATCGC,-0.00357 E-score
2,ATTGTAGC,0.16 E-score
3,CCACTCCC,-0.201 E-score
4,ATATAGTG,0.274 E-score
5,AGACTAGC,0.0689 E-score
6,AGGGTCGG,-0.403 E-score
7,ACCTAGTG,0.0222 E-score
8,AAACTTAG,-0.0212 E-score
9,CACTCACA,-0.053 E-score
10,CCTGGTCG,-0.0911 E-score
11,CATTTTAA,0.0564 E-score
12,ACTGAAAA,0.0802 E-score
13,CCTGAGTA,0.0962 E-score
14,CGCTGTCC,-0.247 E-score
15,ACGAAGCT,-0.0248 E-score
16,AAGGCCTT,-0.239 E-score
17,GGTTAACA,0.231 E-score
18,AGCGTAAA,0.133 E-score
19,CGGGGGTC,-0.366 E-score
20,CCGGCGAC,-0.291 E-score
21,ATAGAGAT,0.0483 E-score
22,GATGCTCA,-0.15 E-score
23,CCGTTGGA,-0.325 E-score
24,CGACTCGC,-0.318 E-score
25,CCCAGGGG,-0.264 E-score

row,Sequence,binding signal
1,ACTTGTTG,0.108 E-score
2,CGGTTCGC,-0.0662 E-score
3,CATTAGCA,-0.0362 E-score
4,CCAATGCA,-0.0984 E-score
5,GAGTCGCC,-0.304 E-score
6,CTTGTTGC,-0.0303 E-score
7,GCGGTAAA,0.137 E-score
8,AACACTGC,0.103 E-score
9,ATCAGCAC,-0.092 E-score
10,ACACATTC,0.122 E-score
11,GTTTAAAA,-0.112 E-score
12,ACGGTAGC,0.139 E-score
13,CTGTCAGC,-0.305 E-score
14,ATGGGGGC,-0.349 E-score
15,AATAGAAC,0.0621 E-score
16,CGCTCAGC,-0.164 E-score
17,ACTATGCC,-0.0106 E-score
18,ACGCGACG,-0.0175 E-score
19,AGCTTAAC,-0.0992 E-score
20,ATGTCATC,-0.00388 E-score
21,ATCATACA,0.208 E-score
22,CTGTGTGA,0.103 E-score
23,CGAGCATC,-0.22 E-score
24,AGGTCTCG,-0.291 E-score
25,ATGCATAG,0.0635 E-score

row,Sequence,binding signal
1,ATCTAAAC,0.169 E-score
2,ACCGGGGG,-0.301 E-score
3,AGGATAGA,0.121 E-score
4,CACTCCTC,-0.238 E-score
5,GTCCATCA,-0.236 E-score
6,CCGCTGTC,-0.289 E-score
7,AGAGATGC,-0.0534 E-score
8,GATACACC,0.153 E-score
9,GCAAGAAA,-0.0705 E-score
10,TGGTTCAA,-0.109 E-score
11,GCGTCCCC,-0.232 E-score
12,GATAATAC,0.187 E-score
13,CCTCTTTA,-0.064 E-score
14,CTGCAGCC,-0.294 E-score
15,CAAACTGC,0.0339 E-score
16,GAGTTCAC,0.155 E-score
17,ATACCTAC,0.351 E-score
18,CTCTTTCC,-0.142 E-score
19,ACCCAGTG,-0.124 E-score
20,CGAAGCCC,-0.465 E-score
21,AGAGGAAG,-0.152 E-score
22,ATTAATCA,0.232 E-score
23,CCGCCGAC,-0.147 E-score
24,GGGATGAA,0.18 E-score
25,CAATCAGG,0.0817 E-score

row,Sequence,binding signal
1,ACAACCCC,-0.355 E-score
2,GAGTGGGC,-0.208 E-score
3,CGCGGGAG,-0.307 E-score
4,ATAATGGC,0.0668 E-score
5,GCGCGCCA,-0.24 E-score
6,ACTGTTGG,-0.000609 E-score
7,CCTGGCAC,-0.215 E-score
8,CTATTCGA,0.159 E-score
9,GCTGGACA,-0.201 E-score
10,GGTAGTTA,0.413 E-score
11,AGGTTGAA,-0.0674 E-score
12,GTCCCCAA,-0.293 E-score
13,ACCGCATG,-0.0876 E-score
14,AGGCCAGG,-0.275 E-score
15,AAAGCGTC,-0.215 E-score
16,GAGGGGCC,-0.375 E-score
17,CTTCGCCC,-0.255 E-score
18,CATAGCGG,-0.0781 E-score
19,CCGTAATA,0.302 E-score
20,GCCCAGTA,0.0314 E-score
21,GCAGATGC,-0.172 E-score
22,CGATCAAG,-0.189 E-score
23,AATATGCC,0.0218 E-score
24,CATCTGGG,-0.0953 E-score
25,AGAGCTGG,-0.116 E-score

row,Sequence,binding signal
1,CCTCGAGG,-0.194 E-score
2,GGAGTGCA,-0.164 E-score
3,CCGCCGGA,-0.153 E-score
4,AGCTTCAT,0.0351 E-score
5,CTGAGTCA,-0.22 E-score
6,ACGGCTTA,-0.0338 E-score
7,AGTTATGC,0.27 E-score
8,CATAGGAA,0.25 E-score
9,CACACGCA,-0.151 E-score
10,TCTCTTAA,-0.0839 E-score
11,CTCGTTAA,-0.0604 E-score
12,CAGCGGCG,-0.287 E-score
13,GGGGCCGA,-0.272 E-score
14,ACCCCTCG,-0.238 E-score
15,CCCCAAAG,-0.204 E-score
16,AGACATAC,0.125 E-score
17,GATCGGAA,-0.0506 E-score
18,ATCGAAAC,0.0448 E-score
19,CCGCAGCA,-0.21 E-score
20,GGTGCTAC,-0.0663 E-score
21,ATTCGAGC,-0.0666 E-score
22,TCTAGAAA,0.222 E-score
23,CAGCAAGA,-0.0272 E-score
24,AGACTCTA,0.0103 E-score
25,CCAGGTCG,-0.194 E-score

row,Sequence,binding signal
1,TACAAACA,0.369 E-score
2,GTGTGATA,-0.106 E-score
3,CAAGGGTA,-0.127 E-score
4,CGTAGTTA,0.127 E-score
5,TTATTGAA,-0.0458 E-score
6,CGGTAGCC,-0.179 E-score
7,ATCTGTCG,-0.0114 E-score
8,CCTTAGAG,-0.347 E-score
9,ATGTGTTA,0.0717 E-score
10,GCAGCAGA,-0.0341 E-score
11,AACTGGGG,-0.305 E-score
12,CCAATGCC,-0.232 E-score
13,GCTTGACC,-0.288 E-score
14,AAGCATAA,0.0528 E-score
15,TCCCGGAA,-0.271 E-score
16,GCATCGGA,-0.0958 E-score
17,GGGAATAC,-0.0105 E-score
18,GCGTGTCC,-0.226 E-score
19,CCTTGCCG,-0.231 E-score
20,CGGGCTCC,-0.311 E-score
21,ACTTGACG,0.0357 E-score
22,ATACGCAT,-0.0297 E-score
23,AGCGAAAG,-0.0813 E-score
24,AAAAGGTG,-0.164 E-score
25,TGTAAACA,0.0871 E-score

row,Sequence,binding signal
1,CGAAACGA,0.114 E-score
2,ATAATGAG,0.22 E-score
3,AAATCTAC,0.398 E-score
4,GCATGGAC,0.0483 E-score
5,AATTTGTG,0.14 E-score
6,CCTGACGC,-0.272 E-score
7,GTGTGACA,-0.105 E-score
8,CTAGCAAG,0.28 E-score
9,ACTGTAAT,0.275 E-score
10,GGAATCAC,0.0431 E-score
11,TGATGCCA,-0.222 E-score
12,ACCCGGAA,-0.115 E-score
13,AGAGACTG,-0.0188 E-score
14,CCGTTGGC,-0.284 E-score
15,GCGGAGTA,-0.00587 E-score
16,AAATCCCC,-0.221 E-score
17,CTGGCGCC,-0.309 E-score
18,CGGGATAC,0.119 E-score
19,TCCGACGA,0.0222 E-score

# Source: article PMC6212790
